In PMC9911399, “Two distinct binding modes provide the RNA-binding protein RbFox with extraordinary sequence specificity”:
Numbering of substitutions follows the chain as printed; changes in the protein carry UniProt numbers. The list shows a part of the results.

T1: RBFOX1 RRM (Homo sapiens, UniProt Q9NWB1 109-208)
T1 sequence: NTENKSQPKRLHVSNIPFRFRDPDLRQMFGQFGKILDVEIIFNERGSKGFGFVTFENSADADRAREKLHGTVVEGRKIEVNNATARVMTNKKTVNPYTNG

B1: UUCUACU (DNA:RNA)
RNA: GGGAGACCGGAAUUCAGAUUGUCCUUCUACUUUAAAUCCCGUCGUAGCCACCA
DNA 1: CAATCTGAATTCCGGTCTCCC
DNA 2: TGGTGGCTACGACGGGATT
B2: GUCGAGU (DNA:RNA)
RNA: B1 RNA with U25G, U28G, C30G
DNA 1: CAATCTGAATTCCGGTCTCCC
DNA 2: TGGTGGCTACGACGGGATT
B3: AUCUGAC (DNA:RNA)
RNA: B1 RNA with U25A, A29G, C30A, U31C
DNA 1: CAATCTGAATTCCGGTCTCCC
DNA 2: TGGTGGCTACGACGGGATT
B4: AACGCCG (DNA:RNA)
RNA: B1 RNA with U25A, U26A, U28G, A29C, U31G
DNA 1: CAATCTGAATTCCGGTCTCCC
DNA 2: TGGTGGCTACGACGGGATT
B5: AACAUUC (DNA:RNA)
RNA: B1 RNA with U25A, U26A, U28A, A29U, C30U, U31C
DNA 1: CAATCTGAATTCCGGTCTCCC
DNA 2: TGGTGGCTACGACGGGATT
B6: GAAGCCC (DNA:RNA)
RNA: B1 RNA with U25G, U26A, C27A, U28G, A29C, U31C
DNA 1: CAATCTGAATTCCGGTCTCCC
DNA 2: TGGTGGCTACGACGGGATT
B7: UAAAUAG (DNA:RNA)
RNA: B1 RNA with U26A, C27A, U28A, A29U, C30A, U31G
DNA 1: CAATCTGAATTCCGGTCTCCC
DNA 2: TGGTGGCTACGACGGGATT
B8: GGCAAAU (DNA:RNA)
RNA: B1 RNA with U25G, U26G, U28A, C30A
DNA 1: CAATCTGAATTCCGGTCTCCC
DNA 2: TGGTGGCTACGACGGGATT
B9: GCCUUCC (DNA:RNA)
RNA: B1 RNA with U25G, U26C, A29U, U31C
DNA 1: CAATCTGAATTCCGGTCTCCC
DNA 2: TGGTGGCTACGACGGGATT
B10: UAGCCGC (DNA:RNA)
RNA: B1 RNA with U26A, C27G, U28C, A29C, C30G, U31C
DNA 1: CAATCTGAATTCCGGTCTCCC
DNA 2: TGGTGGCTACGACGGGATT
B11: GAAGUUA (DNA:RNA)
RNA: GGGAGACCGGAAUUCAGAUUGUCCGAAGUUAUUAAAUCCCGUCGUAGCCACCA
DNA 1: CAATCTGAATTCCGGTCTCCC
DNA 2: TGGTGGCTACGACGGGATT
B12: UAAGGCC (DNA:RNA)
RNA: B11 RNA with G25U, U29G, U30C, A31C
DNA 1: CAATCTGAATTCCGGTCTCCC
DNA 2: TGGTGGCTACGACGGGATT
B13: GCAAUUC (DNA:RNA)
RNA: B11 RNA with A26C, G28A, A31C
DNA 1: CAATCTGAATTCCGGTCTCCC
DNA 2: TGGTGGCTACGACGGGATT
B14: GGAAUGU (DNA:RNA)
RNA: B11 RNA with A26G, G28A, U30G, A31U
DNA 1: CAATCTGAATTCCGGTCTCCC
DNA 2: TGGTGGCTACGACGGGATT
B15: GAGUCCC (DNA:RNA)
RNA: B11 RNA with A27G, G28U, U29C, U30C, A31C
DNA 1: CAATCTGAATTCCGGTCTCCC
DNA 2: TGGTGGCTACGACGGGATT
B16: GCCUAUC (DNA:RNA)
RNA: B1 RNA with U25G, U26C, C30U, U31C
DNA 1: CAATCTGAATTCCGGTCTCCC
DNA 2: TGGTGGCTACGACGGGATT
B17: AAAUCAC (DNA:RNA)
RNA: B11 RNA with G25A, G28U, U29C, U30A, A31C
DNA 1: CAATCTGAATTCCGGTCTCCC
DNA 2: TGGTGGCTACGACGGGATT
B18: ACGCGGA (DNA:RNA)
RNA: B11 RNA with G25A, A26C, A27G, G28C, U29G, U30G
DNA 1: CAATCTGAATTCCGGTCTCCC
DNA 2: TGGTGGCTACGACGGGATT
B19: GGAGGUU (DNA:RNA)
RNA: B11 RNA with A26G, U29G, A31U
DNA 1: CAATCTGAATTCCGGTCTCCC
DNA 2: TGGTGGCTACGACGGGATT
B20: GUAUCUU (DNA:RNA)
RNA: B11 RNA with A26U, G28U, U29C, A31U
DNA 1: CAATCTGAATTCCGGTCTCCC
DNA 2: TGGTGGCTACGACGGGATT
B21: UUACGCU (DNA:RNA)
RNA: B1 RNA with C27A, U28C, A29G
DNA 1: CAATCTGAATTCCGGTCTCCC
DNA 2: TGGTGGCTACGACGGGATT
B22: GAGGGUG (DNA:RNA)
RNA: B11 RNA with A27G, U29G, A31G
DNA 1: CAATCTGAATTCCGGTCTCCC
DNA 2: TGGTGGCTACGACGGGATT
B23: UGUGCGU (DNA:RNA)
RNA: B1 RNA with U26G, C27U, U28G, A29C, C30G
DNA 1: CAATCTGAATTCCGGTCTCCC
DNA 2: TGGTGGCTACGACGGGATT
B24: GCGUAUU (DNA:RNA)
RNA: B1 RNA with U25G, U26C, C27G, C30U
DNA 1: CAATCTGAATTCCGGTCTCCC
DNA 2: TGGTGGCTACGACGGGATT
B25: UCCCUGU (DNA:RNA)
RNA: B1 RNA with U26C, U28C, A29U, C30G
DNA 1: CAATCTGAATTCCGGTCTCCC
DNA 2: TGGTGGCTACGACGGGATT
B26: UUCUCUC (DNA:RNA)
RNA: B1 RNA with A29C, C30U, U31C
DNA 1: CAATCTGAATTCCGGTCTCCC
DNA 2: TGGTGGCTACGACGGGATT
B27: GAAGUUG (DNA:RNA)
RNA: B11 RNA with A31G
DNA 1: CAATCTGAATTCCGGTCTCCC
DNA 2: TGGTGGCTACGACGGGATT
B28: AUUGGCC (DNA:RNA)
RNA: B1 RNA with U25A, C27U, U28G, A29G, U31C
DNA 1: CAATCTGAATTCCGGTCTCCC
DNA 2: TGGTGGCTACGACGGGATT
B29: CAUUUAA (DNA:RNA)
RNA: B11 RNA with G25C, A27U, G28U, U30A
DNA 1: CAATCTGAATTCCGGTCTCCC
DNA 2: TGGTGGCTACGACGGGATT
B30: GUGAAUG (DNA:RNA)
RNA: B11 RNA with A26U, A27G, G28A, U29A, A31G
DNA 1: CAATCTGAATTCCGGTCTCCC
DNA 2: TGGTGGCTACGACGGGATT
B31: GCCCUUU (DNA:RNA)
RNA: B11 RNA with A26C, A27C, G28C, A31U
DNA 1: CAATCTGAATTCCGGTCTCCC
DNA 2: TGGTGGCTACGACGGGATT

molecular target: T1, RBFOX1 RRM; experiment: EMSA; HiTS-Eq, 1 nM pool, 10 min; buffer printed only for the single-RNA assays: 10 mM Tris pH 7.5, 150 mM NaCl, 3.4 mM EDTA, 0.001% NP-40, 30 C; conditions: tags: His6 N-terminal (pET28a); label: 5' 32P
Procedure, shortened: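 These values rest on relative association constants, computed from read-count changes of each RNA species versus the control reaction and normalised to the cognate motif. Reads came from free RNA recovered by 8% native PAGE after purified RbFox RRM (wild type or mutant) at increasing concentrations was equilibrated for 10 min in 50 µL with 1 nM of a 5′-radiolabelled pool with 7 randomized nucleotides and DNA-annealed flanks.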

**Q.** How did the binding signal turn out when B1 was run?
**A.** The binding signal was 0.00512 KA relative to UGCAUGU.

**Q.** How did the binding signal turn out when B2 was run?
**A.** The binding signal was 0.0162 KA relative to UGCAUGU.

**Q.** B3 was tested. Which binding signal did it give?
**A.** The binding signal was 0.014 KA relative to UGCAUGU.

**Q.** How did the binding signal turn out when B4 was run?
**A.** The binding signal was 0.00493 KA relative to UGCAUGU.

**Q.** For B5, which binding signal is on record?
**A.** The binding signal was 0.00217 KA relative to UGCAUGU.

**Q.** For B6, which binding signal is on record?
**A.** The binding signal was 0.00758 KA relative to UGCAUGU.

**Q.** Which binding signal does the source give for B7 here?
**A.** The binding signal was 0.00865 KA relative to UGCAUGU.

**Q.** For B8, which binding signal is on record?
**A.** The binding signal was 0.00495 KA relative to UGCAUGU.

**Q.** B9 was tested. Which binding signal did it give?
**A.** Its binding signal is 0.00993 KA relative to UGCAUGU.

**Q.** For B10, which binding signal is on record?
**A.** The binding signal was 0.00928 KA relative to UGCAUGU.

**Q.** For B11, which binding signal is on record?
**A.** Its binding signal is 0.00696 KA relative to UGCAUGU.

**Q.** B12 was tested. Which binding signal did it give?
**A.** The binding signal was 0.0143 KA relative to UGCAUGU.

**Q.** How did the binding signal turn out when B13 was run?
**A.** Its binding signal is 0.00667 KA relative to UGCAUGU.

**Q.** For B14, which binding signal is on record?
**A.** The binding signal was 0.0563 KA relative to UGCAUGU.

**Q.** For B15, which binding signal is on record?
**A.** The binding signal was 0.00017 KA relative to UGCAUGU.

**Q.** Which binding signal does the source give for B16 here?
**A.** Its binding signal is 0.00685 KA relative to UGCAUGU.

**Q.** B17 was tested. Which binding signal did it give?
**A.** Its binding signal is 0.000306 KA relative to UGCAUGU.

**Q.** Which binding signal does the source give for B18 here?
**A.** Its binding signal is 0.00545 KA relative to UGCAUGU.

**Q.** Which binding signal does the source give for B19 here?
**A.** Its binding signal is 0.022 KA relative to UGCAUGU.

**Q.** B20 was tested. Which binding signal did it give?
**A.** Its binding signal is 0.0109 KA relative to UGCAUGU.

**Q.** How did the binding signal turn out when B21 was run?
**A.** Its binding signal is 0.00692 KA relative to UGCAUGU.

**Q.** Which binding signal does the source give for B22 here?
**A.** Its binding signal is 0.0242 KA relative to UGCAUGU.

**Q.** With B23 as the binder, how does the binding signal read?
**A.** Its binding signal is 0.0272 KA relative to UGCAUGU.

**Q.** With B24 as the binder, how does the binding signal read?
**A.** Its binding signal is 0.00728 KA relative to UGCAUGU.

**Q.** How did the binding signal turn out when B25 was run?
**A.** Its binding signal is 0.00727 KA relative to UGCAUGU.

**Q.** How did the binding signal turn out when B26 was run?
**A.** Its binding signal is 0.00845 KA relative to UGCAUGU.

**Q.** With B27 as the binder, how does the binding signal read?
**A.** The binding signal was 0.0204 KA relative to UGCAUGU.

**Q.** B28 was tested. Which binding signal did it give?
**A.** The binding signal was 0.013 KA relative to UGCAUGU.

**Q.** How did the binding signal turn out when B29 was run?
**A.** Its binding signal is 0.00082 KA relative to UGCAUGU.

**Q.** B30 was tested. Which binding signal did it give?
**A.** The binding signal was 0.0355 KA relative to UGCAUGU.

**Q.** With B31 as the binder, how does the binding signal read?
**A.** The binding signal was 0.00808 KA relative to UGCAUGU.
